We go through 1 molecule from patent CN117138036A.

This assay has as its target 混合人源IL-4、IL-5 (human), P05112. In words: cell-based or functional assay.

Chain of 混合人源IL-4、IL-5 (human), P05112 (P05112 25-153 limits assumed, chain 1 of 2): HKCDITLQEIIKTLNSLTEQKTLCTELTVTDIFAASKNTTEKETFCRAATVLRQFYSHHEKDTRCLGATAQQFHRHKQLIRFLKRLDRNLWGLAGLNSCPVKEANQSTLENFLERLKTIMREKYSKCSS
Chain of 混合人源IL-4、IL-5 (human), P05112 (P05113 20-134 limits assumed, chain 2 of 2, further chain): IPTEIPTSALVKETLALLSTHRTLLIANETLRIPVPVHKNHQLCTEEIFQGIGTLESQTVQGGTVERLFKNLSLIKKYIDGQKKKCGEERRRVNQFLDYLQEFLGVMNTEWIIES

B1: 4E9V10-2B3V2-2 (bispecific antibody, human IgG4 S228P)
chain: QVQLVESGGGLVQPGGSLRLSCAASGDFYCMAWFRQAPGKEREAVAAIRSGGRSTYYADSVKGRFTISRDNSKNTLYLQMNSLKAEDTAVYYCAVGVDGNCRNYWGQGTLVTVSS[in this place human IgG4 Fc with S228P (EU numbers)]ESKYGPPCPPCPQVQLVESGGGSVQAGGSLRLSCAASGNTFSFSTYCMGWFRQSPGKEREGSLATIYDASTAYAGSVKGRFTISRDNSKNILYLQMNNLRAEDTAVYYCAAARYCMFWSHPSYWGQGTQVTVSS
The molecule B1 registered an EC50, IL4:IL5=1:1混合诱导TF-1增殖, 板7 of 369 pM; an EC50, IL4:IL5=1:1混合诱导TF-1增殖, 板8 of 371 pM; an EC50, IL4:IL5=1:2混合诱导TF-1增殖, 板9 of 595 pM; an EC50, IL4:IL5=1:2混合诱导TF-1增殖, 板10 of 736 pM. Also, the EC50, IL4:IL5=1:3混合诱导TF-1增殖, 板11 came out at 152 pM; the EC50, IL4:IL5=1:3混合诱导TF-1增殖, 板12 stood at 108 pM; the EC50, IL4:IL5=1:4混合诱导TF-1增殖, 板13 was 78.8 pM; the EC50, IL4:IL5=1:4混合诱导TF-1增殖, 板14 stood at 49.9 pM. Also, the EC50, IL4:IL5=2:1混合诱导TF-1增殖, 板5 is 240 pM; the EC50, IL4:IL5=2:1混合诱导TF-1增殖, 板6 stood at 213 pM; the EC50, IL4:IL5=3:1混合诱导TF-1增殖, 板3 stood at 243 pM; the EC50, IL4:IL5=3:1混合诱导TF-1增殖, 板4 stood at 219 pM. Also, the 试验窗口, IL4:IL5=1:1混合诱导TF-1增殖, 板7 is 1.71 倍; the 试验窗口, IL4:IL5=1:1混合诱导TF-1增殖, 板8 was 1.7 倍; the 试验窗口, IL4:IL5=1:2混合诱导TF-1增殖, 板9 was 1.58 倍; the 试验窗口, IL4:IL5=1:2混合诱导TF-1增殖, 板10 is 1.64 倍. In addition, the 试验窗口, IL4:IL5=1:3混合诱导TF-1增殖, 板11 was 1.5 倍; the 试验窗口, IL4:IL5=1:3混合诱导TF-1增殖, 板12 was 1.74 倍; the 试验窗口, IL4:IL5=1:4混合诱导TF-1增殖, 板13 is 1.5 倍; the 试验窗口, IL4:IL5=1:4混合诱导TF-1增殖, 板14 is 1.67 倍. The 试验窗口, IL4:IL5=2:1混合诱导TF-1增殖, 板5 was 1.55 倍; the 试验窗口, IL4:IL5=2:1混合诱导TF-1增殖, 板6 was 1.63 倍; the 试验窗口, IL4:IL5=3:1混合诱导TF-1增殖, 板3 is 1.53 倍; the 试验窗口, IL4:IL5=3:1混合诱导TF-1增殖, 板4 was 1.6 倍.
